Test results published in article PMC12548464.
Changes are numbered by the printed parent chain. Names may count otherwise. No constants are given. Whether binding was seen depends on the method and setting. In cells and extracts the contact can be indirect. Some results given as binding are weak or reduced against the parent protein; the word gives no strength. Where a sequence is shown, tags or fusion partners need not be part of it. Values belong to the binder of their own block, whether it stands above or below them.

Columns and labels:
[1] = target: FLAG-Itch (ubiquitin ligase Itch, atrophin-1-interacting protein 4), Q96J02; assay: co-IP; Huh-7.5 cells co-transfected with pCAG-FLAG-Itch and pCAG-HA-ADRP, harvested 48 h after transfection; lysis buffer 150 mM NaCl, 10 mM Tris-HCl pH 7.4, 0.1% SDS, 1% sodium deoxycholic acid, 1% Triton X-100; immunoprecipitated with anti-HA PAb (Fig. 4E) or anti-FLAG MAb (Fig. 4F) at 4°C overnight, normal IgG as control; immunoblot; conditions: remark: other sources report otherwise
[2] = target: T1, SPG20-FLAG (SPG20/Spartin, C-terminally FLAG-tagged) (UniProt Q8N0X7); assay: co-IP; Huh-7.5 cells co-transfected with pCAG-SPG20-FLAG and pCAG-HA-TIP47, 48 h; immunoprecipitated with anti-FLAG M2 beads (Fig. 7B) or anti-TIP47 antibody (Fig. 7C; Fig. 7D with co-expressed inactive HA-NS3(S139A)/4A); same lysis buffer, 4°C overnight; immunoblot
T1 sequence: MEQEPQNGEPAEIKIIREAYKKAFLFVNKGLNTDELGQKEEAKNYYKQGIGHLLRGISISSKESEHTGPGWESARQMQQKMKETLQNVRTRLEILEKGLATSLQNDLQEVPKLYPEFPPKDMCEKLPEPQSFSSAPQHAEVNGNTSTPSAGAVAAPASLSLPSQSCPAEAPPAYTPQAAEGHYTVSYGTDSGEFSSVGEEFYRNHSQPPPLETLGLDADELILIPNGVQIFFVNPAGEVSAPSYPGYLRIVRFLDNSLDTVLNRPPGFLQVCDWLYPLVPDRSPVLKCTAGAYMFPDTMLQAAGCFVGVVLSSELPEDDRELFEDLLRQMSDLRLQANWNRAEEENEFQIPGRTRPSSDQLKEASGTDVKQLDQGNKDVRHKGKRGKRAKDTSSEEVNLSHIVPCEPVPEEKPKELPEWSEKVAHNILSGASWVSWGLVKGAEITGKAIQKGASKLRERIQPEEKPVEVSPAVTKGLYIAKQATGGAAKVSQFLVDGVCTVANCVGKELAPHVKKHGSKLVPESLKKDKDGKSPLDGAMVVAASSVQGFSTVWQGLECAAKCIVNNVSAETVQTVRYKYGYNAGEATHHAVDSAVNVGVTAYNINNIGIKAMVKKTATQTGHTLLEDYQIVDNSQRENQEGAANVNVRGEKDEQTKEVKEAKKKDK

[3] = target: T2, HA-TIP47 (tail-interacting protein of 47 kDa, TIP47/PLIN3) (UniProt O60664); assay: as above
T2 sequence: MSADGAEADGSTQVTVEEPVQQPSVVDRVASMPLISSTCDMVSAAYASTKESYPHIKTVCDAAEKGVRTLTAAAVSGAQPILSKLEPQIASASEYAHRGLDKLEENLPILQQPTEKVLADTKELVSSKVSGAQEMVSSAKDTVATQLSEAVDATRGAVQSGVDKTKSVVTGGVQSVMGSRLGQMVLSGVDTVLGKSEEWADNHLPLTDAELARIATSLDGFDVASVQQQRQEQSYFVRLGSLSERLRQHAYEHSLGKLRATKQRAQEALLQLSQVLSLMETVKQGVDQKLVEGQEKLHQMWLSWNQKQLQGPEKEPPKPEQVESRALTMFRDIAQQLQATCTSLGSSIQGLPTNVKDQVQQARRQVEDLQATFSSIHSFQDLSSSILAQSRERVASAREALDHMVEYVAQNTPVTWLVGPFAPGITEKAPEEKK

[4] = target: T2, HA-TIP47 (tail-interacting protein of 47 kDa, TIP47/PLIN3); assay: condition: only with co-expressed wild-type HA-NS3/4A protease (cleaves SPG20); co-IP; as a2, but with co-expressed wild-type HA-NS3/4A protease, which cleaves SPG20; immunoprecipitated with anti-TIP47 MAb (Fig. 7D); immunoblot
[5] = target: T3, endogenous TIP47 (human (endogenous in Huh-7.5)) (UniProt O60664); assay: co-IP; Huh-7.5 cells transfected with pCAG-SPG20-FLAG, 48 h; endogenous TIP47 immunoprecipitated with anti-TIP47 rabbit PAb, isotype control rabbit IgG as negative control (Fig. 7E); immunoblot
T3 sequence: T2 sequence

[6] = target: T4, TIP47 (construct of Fig. 7F, precipitated with anti-c-Myc MAb) (UniProt O60664); assay: co-IP; Huh-7.5 cells transfected with the plasmids as indicated and then infected with HCV J6/JFH1 at an m.o.i. of 2, harvested 48 h after infection; immunoprecipitated with anti-c-Myc MAb (Fig. 7F); immunoblot
T4 sequence: T2 sequence

- binding [1]: binds
B1: HA-ADRP (adipophilin, ADRP/PLIN2), Q99541 1-437 (protein)
chain: MASVAVDPQPSVVTRVVNLPLVSSTYDLMSSAYLSTKDQYPYLKSVCEMAENGVKTITSVAMTSALPIIQKLEPQIAVANTYACKGLDRIEERLPILNQPSTQIVANAKGAVTGAKDAVTTTVTGAKDSVASTITGVMDKTKGAVTGSVEKTKSVVSGSINTVLGSRMMQLVSSGVENALTKSELLVEQYLPLTEEELEKEAKKVEGFDLVQKPSYYVRLGSLSTKLHSRAYQQALSRVKEAKQKSQQTISQLHSTVHLIEFARKNVYSANQKIQDAQDKLYLSWVEWKRSIGYDDTDESHCAEHIESRTLAIARNLTQQLQTTCHTLLSNIQGVPQNIQDQAKHMGVMAGDIYSVFRNAASFKEVSDSLLTSSKGQLQKMKESLDDVMDYLVNNTPLNWLVGPFYPQLTESQNAQDQGAEMDKSSQETQRSEHKTH

- binding [6]: binds
B4: SPG20 C504A-FLAG (protein, UniProt Q8N0X7 1-666)
chain: T1 sequence with C504A

The next lines start with the binder.

B2: HA-TIP47 (tail-interacting protein of 47 kDa, TIP47/PLIN3) (protein, UniProt O60664 1-434)
chain: T2 sequence
- binding [2]: binds

B3: SPG20-FLAG (SPG20/Spartin, C-terminally FLAG-tagged) (protein, UniProt Q8N0X7 1-666)
chain: T1 sequence
- binding [3]: binds
- binding [4]: no binding
- binding [5]: binds
